The source gives no read counts; variants with many changes may rest on few reads.

In the RNAGym collection of RNA variant scans (doi:10.1093/nar/gkz1192) one finds self-cleavage data, which are given here for 34 variants.

B1: CPEB3 Ribozyme (parent)
chain: UAACAGGGGGCCACAGCAGAAGCGUUCACGUCGCAGCCCCUGUCAGAUUCUGGUGAAUCUGCGAAUUCUGCUGUAUAUCUC

In the series the parent is B1. Put plainly: self-cleavage, relative activity (ratio to wild type); higher = more cleavage; in vitro, sequencing. In outline:
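Libraries of CPEB3 self-cleaving ribozyme mutants came from rounds of error-prone PCR and carried barcodes, which DNA sequencing matched to variants. In vitro transcription used T7 RNA polymerase at 37°C for 5 hours, with a further 15 min in DNase I before EDTA stopped the reaction; the ribozymes cleaved during both steps. The RNA was reverse transcribed with template switching and sequenced on Illumina. Relative activity is the cleaved/total read fraction of a variant divided by that of the unmutated ribozyme, averaged over three batches with at least 5 reads.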
Regarding UGACAGGGGGCCACAGCAGAAGCGUUCACGUCGCAGCCCCUGUCAGCUUCUGGUGAAUCUGCGGAUUCUGCUGUAUAUCUC [A2G A47C A64G], the self-cleavage came out at 0.21. With UGACAGGGGGCCACAGCAGAAGCGUUCGAGUCGCAGCCCCUGUCAGAUUCUGGUGAAUCUGCGAAUUCUGCAGUAUAUCUC [A2G A28G C29A U72A] the figure was 0.36; with UGACAGGGGGCCACAGCAGAAGCGUUCACGUCGCUGCCCCUGCCAGAUUCUGGUGAACCUGCGAAUUCUGCUGUAUACCCC [A2G A35U U43C U58C U78C U80C], 0.04.

As for UGACAGGGGGCCACAGCAGAAGCGUUCACGUCGCCGCCCCUGUCAGAUUCUGGUGUAUCUGCGAAUUCUGCUGUAUAUCUC [A2G A35C A56U], the self-cleavage was found to be 0.21. As for UGACAGGGGGCCACAGCAGAAGCGUUCACGUCGCAGCCCCUGUCAGAUUCUGGUGGAUCUGCGAAUUCUGCCGUAUAUCUC [A2G A56G U72C], the figure is 0.51. Take UGACAGGGGGCCACAGCAGAAGCGUUCACGUCGCAGCCCCUGUCGGAUCCUGGUGAAUCUGCGAAUUCUGCUGUGUAUCUC [A2G A45G U49C A75G]: the self-cleavage is 0.23.

UGACAGGGGGCCACAGCAGAAGCGUUCACGUCGCGGCCCCUGUCAGAUUCUGGUGAAUCUGCGAAUUCUGCUGUAUACCUC [A2G A35G U78C]: the self-cleavage stood at 1.22.

Turning to UGACAGGGGGCCACAGCAGAAGCGUUCACGUCGCAGCCCCUGUCUGAUUCUGGUGAAUCUGCGAAUUCCGCUGUAUAUCUC [A2G A45U U69C], the self-cleavage came to 0.2. With UGACAGGGGGCCACAGCAGAAGCGUUCACGUCGCGGCCCCUGUCAGAUUCUGGUGGAUCUGCGUAUUCUGCUGUAUAUCUC [A2G A35G A56G A64U], the self-cleavage was determined as 0.56.

Take UGACAGGGGGCCACAGCAGAGGCGCUCACGUUGCAGCCCCUGUCAGAUUCUGGUGAAUCUGCGAAUUCUGCUGUAUAUCUC [A2G A21G U25C C32U]: the self-cleavage was found to be 0.32. As to UGACAGGGGGCCACAGCAGAAGCGUUCACGUCGCAGCCCCUGUCGGAUUCUGGUGAAUCUGCGAAUUCUGCUGUAUAUCUA [A2G A45G C81A], the self-cleavage was found to be 0.74. As for UGACAGGGGGCCACAGCAGAGGCGUUCACGUCGCAGCCCCUGUCAGAUUCUGGUGAAUCUGCGAAUUCUGAUGCAUAUCUC [A2G A21G C71A U74C], the figure is 0.31; as for UGACAGGGGGCCACAGCAGAUGCGUUCACGUCGCAGCCCCUGUCAGAUUCUGGUGAAUCAGCGAAUUCUGCUGUAUAUCUC [A2G A21U U60A], 0.22; as for UGACAGGGGGCCACAGCAGAAGCGUUCACGUCGCUGCCCCUGUCAGAUUCCGGUGAAUCUGCGAAUUCUGCUGUAUAUCUC [A2G A35U U51C], 0.36. With UGACAGGGGGCCACAGCAGAAGCGUUCACGUCGCCGCCCCUGUCAGAUUCUGGUGAAUCUGCGAAUUCUGCAGUAUAUCUC [A2G A35C U72A] the figure was 0.23; with UGACAGGGGGCCACAGCAGAAGCGUUCUCGUCGCAGCCCCGGUCAGAUUCUGGUGAAUCUGCGAACUCUGCUGUAUACCUC [A2G A28U U41G U66C U78C], 0.16; with UGACAGGGGGCCACAGCAGAAGCGUUCACGUCGCAGCCCCUGUCUGAUUCAGGUGAAUCCGCGAAUUCAGCUGUAUAUCUC [A2G A45U U51A U60C U69A], 0.08. As for UGACAGGGGGCCACAGCAGAGGCGUUCACGUCGCAGCCCCUGUCAGAUUCUGGUGAAUCUGCGAAUUCUGCUGUAAAUCUC [A2G A21G U76A], the figure is 0.42. On to UGACAGGGGGCCACAGCAGAAGCGUUCACGUCGCAGCCCCUGUCAGGUCCUGGUGAGUCCGCGGAUUCUGCUGUAUAUCUC [A2G A47G U49C A57G U60C A64G], for which the self-cleavage came out at 0.11. With UGACAGGGGGCCACAGCAGAAGCGUUCACGUCGCAGCCCCUGUCAGAUUCUGGUGGAUCUGCGAAUUCUGCUGUAUAGCUC [A2G A56G U78G] the figure was 0.43. As for UGACAGGGGGCCACAGCAGAAGCGUUCACGUCGCGGCCCCUGUCAGAUUCUGGCGAAUCUGCGAAUUCUGCUGUAUACCUC [A2G A35G U54C U78C], the figure is 1.07. As for UGACAGGGGGCCACAGCAGAGGCGUUCACGUCGCAGCCCCUGUCAGAUUCUGGCGAAUCUGCGGAUUCUGCUGUAUACCUC [A2G A21G U54C A64G U78C], the figure is 0.04. UGACAGGGGGCCACAGCAGAAGCGUUCACGUCGCAGCCCCUGUCGGAUUCUGGUGAAUCUGCGUAUUCCGCUGUAUAUCUA [A2G A45G A64U U69C C81A]: the self-cleavage is 0.31.

For the variant UGACAGGGGGCCACAGCAGAAGCGUUCGCGUCGCAGCCCCUGUCAGAUUCUGGUUAAUCUGCGAGUUCCGCUGUAUAUCUC [A2G A28G G55U A65G U69C], the self-cleavage is 0.04.

As for UGACAGGGGGCCACAGCAGAAGCGUUCUCGUCGCAGCUCCUGUCAGAUUCUGGUGAAUCUGCGAAUUCUGCUGUAUAUCUC [A2G A28U C38U], the self-cleavage came to 0.16.

For UGACAGGGGGCCACAGCAGAAGCGUUCCCGUCGCAGCCCCUGCCAAACUCUGGUGAAUCUGCGAAUUCGGCUGUAUAUCUC [A2G A28C U43C G46A U48C U69G], the self-cleavage came out at 0.18.

In the case of UGACAGGGGGCCACAGCAGAAGCGUUCUCGUCGCAGCCCCUGUCAGAUCCUGGUGAAUCUGCGAAUUCUGCUGUAUAUCUC [A2G A28U U49C], the self-cleavage was determined as 0.21. As for UGACAGGGGGCCACAGCAGAGGCGUUCACGUCGCAGCCCCUGUCAGAUGCUGGUGAAUCUGCGAAUCCUGCUGUAUAUCUC [A2G A21G U49G U67C], the figure is 0.24; as for UGACAGGGGGCCACAGCAGAAGCGUUCACGUCGCUGCCCCUGUCAGAUUCUGGUGAAUCCGCGAAUUCUGCUGUAUAUCUC [A2G A35U U60C], 0.09; as for UGACAGGGGGCCACAGCAGAAGCGUUCGCGUCGCAGCCCCUGUCAGAUUCUGGUGGAUCUGCGGAUUCUGCUGUAUAUCUC [A2G A28G A56G A64G], 0.17. With UGACAGGGGGCCACAGCAGAGGCGUUCAAGUCGCUGCCCCUGUCAGAUUCUGGUGAAUCUGCGAAUUCUGCUGUAUAUCUC [A2G A21G C29A A35U], the self-cleavage was 0.06. With UGACAGGGGGCCACAGCAGAAGCGUUCACGUCGCAGCCCCUGUCUGAUUCUUGUGAAUCUGCGAAUUCUGCUGUAUACCUC [A2G A45U G52U U78C], the self-cleavage came to 0.36.

With UGACAGGGGGCCACAGCAGAAGCGUUCGCGUCGCAGCCCCUGUCAGACUCUGGAGAAUCUGCGAAUUCCGCUGUAUGUCUC [A2G A28G U48C U54A U69C A77G], the self-cleavage is 0.06. With UGACAGGGGGCCACAGCAGAGGCGUUCACGUCGCAGCCCCUGUCAGAGUCUGGUGAAUCCGCGAAUUCUGCUGUAUAUCUC [A2G A21G U48G U60C] the figure was 0.34.
